{"source": "the BET-seq Pho4 binding data (Le et al. 2018)", "note": "The other results are listed elsewhere or left out. The energies were worked out here from pooled read counts, against the library average; single values are noisy.", "data": [{"molecular_target": "T1, Pho4 (S. cerevisiae) (UniProt P07270)", "T1 sequence": "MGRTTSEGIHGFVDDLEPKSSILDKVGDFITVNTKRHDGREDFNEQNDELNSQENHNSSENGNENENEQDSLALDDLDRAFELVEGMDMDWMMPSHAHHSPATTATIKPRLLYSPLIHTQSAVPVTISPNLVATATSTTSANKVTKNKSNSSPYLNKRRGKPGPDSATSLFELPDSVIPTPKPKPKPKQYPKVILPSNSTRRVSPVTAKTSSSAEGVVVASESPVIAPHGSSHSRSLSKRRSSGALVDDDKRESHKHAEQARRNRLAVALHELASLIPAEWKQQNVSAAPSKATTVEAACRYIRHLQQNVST", "test": "relative binding free energy (BET-seq); higher = weaker binding", "settings": "reference: library average", "units": {"relative binding free energy": "kcal/mol"}, "values": [{"sequence": "TATGTCACGTGGCTTG", "relative binding free energy": 0.11}, {"sequence": "ATAAGCACGTGGTGGC", "relative binding free energy": -0.19}, {"sequence": "TGGTGCACGTGATATG", "relative binding free energy": -0.08}, {"sequence": "GGCTTCACGTGGTGTT", "relative binding free energy": 0.23}, {"sequence": "ATAGGCACGTGAGTAA", "relative binding free energy": 0}, {"sequence": "TAAGTCACGTGGTTCT", "relative binding free energy": 0.22}, {"sequence": "TTGCGCACGTGGTGTT", "relative binding free energy": -0.18}, {"sequence": "GGTGTCACGTGGTCAA", "relative binding free energy": 0.14}, {"sequence": "TAGGCCACGTGTGCGG", "relative binding free energy": -0.14}, {"sequence": "GATGGCACGTGTGCAA", "relative binding free energy": 0}, {"sequence": "AGGGACACGTGAAGGC", "relative binding free energy": 0.36}, {"sequence": "GTTGCCACGTGTACGT", "relative binding free energy": 0.05}, {"sequence": "GGGGCCACGTGAGTAT", "relative binding free energy": 0.09}, {"sequence": "AGTTTCACGTGTGAAA", "relative binding free energy": 0.25}, {"sequence": "ATATGCACGTGTTTGC", "relative binding free energy": 0.03}, {"sequence": "TGAAACACGTGTTCGG", "relative binding free energy": 0}, {"sequence": "GCGTTCACGTGGGTAG", "relative binding free energy": 0.22}, {"sequence": "ATATGCACGTGCGATT", "relative binding free energy": 0.02}, {"sequence": "TAAATCACGTGGGCGA", "relative binding free energy": 0.08}, {"sequence": "GTAGTCACGTGATCTG", "relative binding free energy": 0.13}, {"sequence": "ATGTGCACGTGCGGCT", "relative binding free energy": -0.15}, {"sequence": "TTGCGCACGTGTCGGG", "relative binding free energy": -0.28}, {"sequence": "TTGCACACGTGGTAGG", "relative binding free energy": -0.18}, {"sequence": "AGGTTCACGTGCGGTG", "relative binding free energy": 0.3}, {"sequence": "GTAATCACGTGGAGGC", "relative binding free energy": 0.18}, {"sequence": "AGGCTCACGTGGGTAT", "relative binding free energy": 0.04}, {"sequence": "CAGGGCACGTGGTTGC", "relative binding free energy": -0.21}, {"sequence": "AGCAACACGTGGTAGT", "relative binding free energy": 0.06}, {"sequence": "TCGTTCACGTGGGTGC", "relative binding free energy": 0.1}, {"sequence": "GTCTGCACGTGTAGTG", "relative binding free energy": 0.02}, {"sequence": "ATCGGCACGTGTGCGG", "relative binding free energy": -0.05}, {"sequence": "CTTATCACGTGAGGTG", "relative binding free energy": 0.16}, {"sequence": "GGGGTCACGTGGGGTG", "relative binding free energy": 0.05}, {"sequence": "AGTTACACGTGATAGG", "relative binding free energy": 0.17}, {"sequence": "GGCAGCACGTGTTGGA", "relative binding free energy": -0.08}, {"sequence": "CGTGGCACGTGTATGG", "relative binding free energy": -0.03}, {"sequence": "TGTGGCACGTGACATG", "relative binding free energy": -0.02}, {"sequence": "TTGGGCACGTGAAGAA", "relative binding free energy": 0.11}, {"sequence": "ATTAGCACGTGCGTGG", "relative binding free energy": -0.18}, {"sequence": "TCCTTCACGTGTGTTT", "relative binding free energy": 0.22}, {"sequence": "TTAGTCACGTGGAGGG", "relative binding free energy": 0.09}, {"sequence": "AGAATCACGTGTTTTT", "relative binding free energy": 0.28}, {"sequence": "GAAGACACGTGGGATG", "relative binding free energy": -0.06}, {"sequence": "CGGTTCACGTGAGCGG", "relative binding free energy": 0.38}, {"sequence": "TAGGACACGTGCGTGT", "relative binding free energy": 0.04}, {"sequence": "TTTATCACGTGTGTTT", "relative binding free energy": 0.23}, {"sequence": "TTGTTCACGTGGCGAT", "relative binding free energy": 0.19}, {"sequence": "TTGGTCACGTGTGACT", "relative binding free energy": 0.08}, {"sequence": "CTGTTCACGTGAATGT", "relative binding free energy": 0.35}, {"sequence": "AGCGTCACGTGAGTTG", "relative binding free energy": 0.22}, {"sequence": "CAGATCACGTGGATGG", "relative binding free energy": 0.12}, {"sequence": "GGTGGCACGTGGGAAG", "relative binding free energy": -0.01}, {"sequence": "TGGGACACGTGCTAAG", "relative binding free energy": 0.11}, {"sequence": "GGTTTCACGTGACGGG", "relative binding free energy": 0.36}, {"sequence": "ATGATCACGTGTACGG", "relative binding free energy": 0.12}, {"sequence": "CATGGCACGTGAGGTG", "relative binding free energy": 0.2}, {"sequence": "TGATGCACGTGGTCTG", "relative binding free energy": -0.14}, {"sequence": "TTGGTCACGTGAAGGA", "relative binding free energy": 0.39}, {"sequence": "GTGAACACGTGTAGGC", "relative binding free energy": 0.05}, {"sequence": "CATGACACGTGGGCGG", "relative binding free energy": -0.08}, {"sequence": "TGGCTCACGTGAAAGT", "relative binding free energy": 0.4}, {"sequence": "GTCAACACGTGTGTGG", "relative binding free energy": -0.05}, {"sequence": "GGTATCACGTGGAAAT", "relative binding free energy": 0.28}, {"sequence": "GTTTGCACGTGGCGGG", "relative binding free energy": -0.07}, {"sequence": "TTCGGCACGTGGTTGA", "relative binding free energy": -0.11}, {"sequence": "GTAATCACGTGTTGTC", "relative binding free energy": 0.1}, {"sequence": "GCTTTCACGTGCTTTT", "relative binding free energy": 0.28}, {"sequence": "TCTGGCACGTGGTCAG", "relative binding free energy": -0.15}, {"sequence": "GTAGGCACGTGTGGAC", "relative binding free energy": -0.02}, {"sequence": "GGTTCCACGTGCGTGT", "relative binding free energy": 0.03}, {"sequence": "AAGGACACGTGGGGTC", "relative binding free energy": -0.1}, {"sequence": "TGGGGCACGTGGATAG", "relative binding free energy": -0.14}, {"sequence": "TGTCACACGTGGTATA", "relative binding free energy": -0.01}, {"sequence": "ATTAGCACGTGTAGCG", "relative binding free energy": -0.1}, {"sequence": "CTTTTCACGTGCTAGG", "relative binding free energy": 0.22}, {"sequence": "GGTTCCACGTGGCGGG", "relative binding free energy": -0.1}, {"sequence": "AACGGCACGTGGTGTT", "relative binding free energy": -0.19}, {"sequence": "CGTGACACGTGAGGTA", "relative binding free energy": 0.17}, {"sequence": "TAAGGCACGTGCGCGT", "relative binding free energy": -0.22}, {"sequence": "GGAGCCACGTGTTGAT", "relative binding free energy": 0.09}, {"sequence": "GTTTTCACGTGTAGTT", "relative binding free energy": 0.37}, {"sequence": "GCAGGCACGTGGGAAG", "relative binding free energy": -0.15}, {"sequence": "AATAGCACGTGTGGGC", "relative binding free energy": -0.07}, {"sequence": "TGGGGCACGTGATGGT", "relative binding free energy": 0.01}, {"sequence": "GAGGTCACGTGGTGAT", "relative binding free energy": 0.09}, {"sequence": "TTTTGCACGTGTAGGT", "relative binding free energy": 0.02}, {"sequence": "AGTGACACGTGGAATT", "relative binding free energy": 0.04}, {"sequence": "TGAGTCACGTGAGCGT", "relative binding free energy": 0.29}, {"sequence": "GGGGCCACGTGAGGCG", "relative binding free energy": -0.08}, {"sequence": "GGGTTCACGTGTCTTA", "relative binding free energy": 0.36}, {"sequence": "AATTTCACGTGTGGCT", "relative binding free energy": 0.27}, {"sequence": "TCATTCACGTGAAGGT", "relative binding free energy": 0.26}, {"sequence": "CGTAGCACGTGGTGGC", "relative binding free energy": -0.18}, {"sequence": "AGCTTCACGTGTCGTG", "relative binding free energy": 0.16}, {"sequence": "GGGGACACGTGTTACT", "relative binding free energy": 0.18}, {"sequence": "TAGGGCACGTGGCGAA", "relative binding free energy": -0.13}, {"sequence": "GTGGACACGTGGAAAT", "relative binding free energy": 0.13}, {"sequence": "ATAGGCACGTGTTCAT", "relative binding free energy": -0.13}, {"sequence": "TATAGCACGTGACTGT", "relative binding free energy": 0.1}, {"sequence": "GTTCGCACGTGGTGAC", "relative binding free energy": 0.01}, {"sequence": "TTGGCCACGTGTGCTG", "relative binding free energy": -0.11}, {"sequence": "GGGGGCACGTGATACT", "relative binding free energy": 0}, {"sequence": "GAGTACACGTGGGGGC", "relative binding free energy": 0.02}, {"sequence": "GCTAGCACGTGATTGG", "relative binding free energy": 0.19}, {"sequence": "AAGGGCACGTGTAAGA", "relative binding free energy": 0}, {"sequence": "CAGGGCACGTGTTGAG", "relative binding free energy": -0.1}, {"sequence": "AGTGGCACGTGTTGAC", "relative binding free energy": -0.11}, {"sequence": "CAGAGCACGTGATGTG", "relative binding free energy": 0.1}, {"sequence": "ATGAGCACGTGTGTGA", "relative binding free energy": 0}, {"sequence": "TTTTACACGTGGCGGT", "relative binding free energy": 0.15}, {"sequence": "ATATTCACGTGATAGG", "relative binding free energy": 0.2}, {"sequence": "GGTTGCACGTGGTTAC", "relative binding free energy": 0.03}, {"sequence": "TAACGCACGTGTGTGG", "relative binding free energy": -0.05}, {"sequence": "TTAAGCACGTGGACGT", "relative binding free energy": -0.04}, {"sequence": "AGTCTCACGTGTAATG", "relative binding free energy": 0.22}, {"sequence": "TTCATCACGTGTGATG", "relative binding free energy": 0.13}, {"sequence": "GGTTGCACGTGGTATA", "relative binding free energy": -0.05}, {"sequence": "TTAGCCACGTGGGGGC", "relative binding free energy": -0.11}, {"sequence": "TAAGTCACGTGGGATC", "relative binding free energy": 0.03}, {"sequence": "GTTCGCACGTGTTGGA", "relative binding free energy": -0.06}, {"sequence": "ATGGTCACGTGTTGCC", "relative binding free energy": 0.17}, {"sequence": "GGTAACACGTGGGTGA", "relative binding free energy": -0.13}, {"sequence": "TGTAGCACGTGTAGGG", "relative binding free energy": 0}, {"sequence": "ATCTTCACGTGTTTGA", "relative binding free energy": 0.16}, {"sequence": "CTAAACACGTGTTTGT", "relative binding free energy": -0.04}, {"sequence": "TCTCTCACGTGAGGTG", "relative binding free energy": 0.28}, {"sequence": "TGAGGCACGTGTGAGA", "relative binding free energy": 0.01}, {"sequence": "CGGTACACGTGGAGGG", "relative binding free energy": 0.05}, {"sequence": "CGGGCCACGTGGTGTC", "relative binding free energy": -0.19}, {"sequence": "GTTCACACGTGGTGGC", "relative binding free energy": 0.05}, {"sequence": "TGAGGCACGTGTAGGG", "relative binding free energy": -0.06}, {"sequence": "GAATACACGTGAGGGG", "relative binding free energy": 0.26}, {"sequence": "AGTGTCACGTGGGCTC", "relative binding free energy": 0.09}, {"sequence": "TGTTACACGTGTATAT", "relative binding free energy": 0.15}, {"sequence": "ACGAACACGTGGTGGT", "relative binding free energy": 0.03}, {"sequence": "AAGGGCACGTGAAGTT", "relative binding free energy": 0.24}, {"sequence": "TTTGTCACGTGCGGGT", "relative binding free energy": 0.12}, {"sequence": "GTGTTCACGTGGTTTC", "relative binding free energy": 0.22}, {"sequence": "AATAGCACGTGAGGTT", "relative binding free energy": 0.02}, {"sequence": "GGCGTCACGTGTGCGG", "relative binding free energy": 0.13}, {"sequence": "GTATTCACGTGAGAAG", "relative binding free energy": 0.34}, {"sequence": "TGGAACACGTGGCAGG", "relative binding free energy": -0.02}, {"sequence": "GTGTGCACGTGTACGG", "relative binding free energy": 0.07}, {"sequence": "AATTGCACGTGTAAGG", "relative binding free energy": 0.11}, {"sequence": "GTAAGCACGTGGGCGT", "relative binding free energy": -0.09}, {"sequence": "GTAAGCACGTGTTGGT", "relative binding free energy": -0.01}]}]}
